In PubChem BioAssay AID504333 (National Center for Advancing Translational Sciences (NCATS), 2011):
The whole screen tested about 360,000 compounds, of which about 16,000 (4.4%) were called active. Inconclusive results, whose numbers are uncertain, are shown with a selection of clear calls. Calls follow the shape of the dose curve; as a rule, active = well fitted inhibition curve with a large enough effect; inconclusive = small, poorly fitted or top-dose-only effect; inactive = no such curve, though single readings can be large or run the other way. Where the call is inconclusive, the potency comes from a doubtful curve fit.
Also: nearly all actives have a fitted effect of over 60% in size.
Potency is read from the fitted curve at half-maximal effect; tags tell the direction and shape of the fitted curve.

The molecules below were run against Bromodomain adjacent to zinc finger domain protein 2B (Homo sapiens) (UniProt Q9UIF8) (assay: qHTS Assay for Inhibitors of BAZ2B). Conditions: AlphaScreen BAZ2B-H3K14Ac peptide displacement; series mostly up to 114 µM.
Sequence of UniProt Q9UIF8 (Q9UIF8 whole entry, looked up, the tested form may be a part): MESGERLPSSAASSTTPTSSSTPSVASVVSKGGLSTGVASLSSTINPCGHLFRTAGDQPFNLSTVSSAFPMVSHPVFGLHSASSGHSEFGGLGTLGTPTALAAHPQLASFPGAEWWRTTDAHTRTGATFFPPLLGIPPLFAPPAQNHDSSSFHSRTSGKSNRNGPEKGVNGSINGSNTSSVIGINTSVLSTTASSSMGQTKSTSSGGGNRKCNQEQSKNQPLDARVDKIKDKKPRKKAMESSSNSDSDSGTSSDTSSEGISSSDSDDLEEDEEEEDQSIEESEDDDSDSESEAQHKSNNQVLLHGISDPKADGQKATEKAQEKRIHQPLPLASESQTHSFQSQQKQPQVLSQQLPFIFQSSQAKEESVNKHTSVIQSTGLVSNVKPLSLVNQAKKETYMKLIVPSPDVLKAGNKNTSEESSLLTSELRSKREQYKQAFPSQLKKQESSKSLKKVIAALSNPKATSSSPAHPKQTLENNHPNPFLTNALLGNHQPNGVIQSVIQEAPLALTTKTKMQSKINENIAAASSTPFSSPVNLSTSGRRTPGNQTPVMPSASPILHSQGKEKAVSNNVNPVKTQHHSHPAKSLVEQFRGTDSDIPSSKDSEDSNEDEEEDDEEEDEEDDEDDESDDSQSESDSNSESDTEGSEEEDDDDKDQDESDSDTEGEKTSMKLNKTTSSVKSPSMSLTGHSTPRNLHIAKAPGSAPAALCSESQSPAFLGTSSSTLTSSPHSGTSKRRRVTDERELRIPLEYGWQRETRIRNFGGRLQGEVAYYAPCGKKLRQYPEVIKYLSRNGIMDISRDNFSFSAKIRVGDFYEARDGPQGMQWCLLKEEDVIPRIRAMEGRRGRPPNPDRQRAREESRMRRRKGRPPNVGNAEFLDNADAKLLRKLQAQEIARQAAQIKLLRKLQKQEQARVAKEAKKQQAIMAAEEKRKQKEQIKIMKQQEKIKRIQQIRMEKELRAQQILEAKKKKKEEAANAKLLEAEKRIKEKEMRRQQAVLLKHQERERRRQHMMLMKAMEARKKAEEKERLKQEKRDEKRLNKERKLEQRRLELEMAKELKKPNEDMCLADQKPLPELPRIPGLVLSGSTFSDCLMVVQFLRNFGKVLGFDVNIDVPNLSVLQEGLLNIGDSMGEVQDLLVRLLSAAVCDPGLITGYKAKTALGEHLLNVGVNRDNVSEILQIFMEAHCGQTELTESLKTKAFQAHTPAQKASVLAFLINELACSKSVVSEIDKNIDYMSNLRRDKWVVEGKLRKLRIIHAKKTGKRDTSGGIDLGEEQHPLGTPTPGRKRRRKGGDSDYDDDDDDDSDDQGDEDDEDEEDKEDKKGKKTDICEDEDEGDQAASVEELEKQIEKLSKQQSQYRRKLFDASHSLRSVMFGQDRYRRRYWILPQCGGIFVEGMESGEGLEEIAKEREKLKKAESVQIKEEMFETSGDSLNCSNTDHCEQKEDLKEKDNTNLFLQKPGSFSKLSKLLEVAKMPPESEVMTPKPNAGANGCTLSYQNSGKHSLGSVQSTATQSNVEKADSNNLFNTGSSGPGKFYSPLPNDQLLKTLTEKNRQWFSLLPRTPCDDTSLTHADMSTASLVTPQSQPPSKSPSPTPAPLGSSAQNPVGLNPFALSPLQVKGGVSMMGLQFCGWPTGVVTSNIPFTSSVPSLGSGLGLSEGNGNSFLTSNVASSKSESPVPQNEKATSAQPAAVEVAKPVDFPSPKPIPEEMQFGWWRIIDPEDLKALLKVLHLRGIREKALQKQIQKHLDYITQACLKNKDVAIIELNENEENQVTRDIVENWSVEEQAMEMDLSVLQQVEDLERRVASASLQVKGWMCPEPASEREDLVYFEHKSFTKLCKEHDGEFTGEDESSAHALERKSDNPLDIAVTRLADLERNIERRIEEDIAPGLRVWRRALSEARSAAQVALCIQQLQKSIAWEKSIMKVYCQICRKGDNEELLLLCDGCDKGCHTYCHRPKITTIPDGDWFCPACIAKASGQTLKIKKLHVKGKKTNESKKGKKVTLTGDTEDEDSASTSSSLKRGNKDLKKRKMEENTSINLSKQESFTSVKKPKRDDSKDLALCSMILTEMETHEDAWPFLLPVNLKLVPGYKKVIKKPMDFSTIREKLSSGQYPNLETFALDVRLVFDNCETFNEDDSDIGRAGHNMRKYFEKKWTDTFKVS
Outline: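 BAZ2B (50 nM) with biotin-H3(5-23)K14Ac peptide (50 nM) in PBS pH 7.4, 0.01% Tween-20, preformed 30 min, then compound 30 min at room temperature; top concentration 110uM. AlphaScreen streptavidin donor/nickel chelate acceptor beads (10 ug/mL final), 20 min dark, signal read.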
`COc1ccc(CCNc2nc(-c3ccc(NC(C)=O)cc3)cs2)cc1OC` was tested, and the Potency was inconclusive: 50.1 µM [inhibitor, partial curve].
`CCC(Sc1nc2ncccc2[nH]1)C(=O)Nc1ccccc1F` (stereo not drawn) was tested, and the Potency was “inactive”.
In the case of `CCOC(=O)c1sc(NC(=O)c2ccc(S(=O)(=O)N(C)C)cc2)cc1C`, the Potency is reported as inconclusive: 89.1 µM [inhibitor, single point].
In the case of `COc1ccc(C(=O)NC(=S)Nc2cccc(Cl)c2N2CCOCC2)cc1[N+](=O)[O-]`, the Potency is reported as inconclusive: 10 µM [inhibitor, partial curve].
For `CCc1ccc(-c2nc(CN3CCC(C(=O)NCc4ccco4)CC3)c(C)o2)cc1`, the Potency was inconclusive: 50.1 µM [inhibitor, partial curve].
For `COc1ccccc1COCC(O)CNCC1(N2CCCCC2)CCCCC1` (stereo not drawn), the Potency was inconclusive: 89.1 µM [inhibitor, single point].
`O=C(NNC(=O)c1ccccn1)c1cccc([N+](=O)[O-])c1` was tested, and the Potency was inconclusive: 89.1 µM [inhibitor, single point].
`CCN(CC)c1ccc(/C=N/NS(=O)(=O)c2ccc(C)c([N+](=O)[O-])c2)cc1` was tested, and the Potency was inconclusive: 39.8 µM [inhibitor, full curve].
`O=S(=O)(c1ccc(Cl)cc1)c1nc(-c2ccccc2F)oc1NCc1ccccc1` was tested, and the Potency was inconclusive: 2.24 µM [inhibitor, full curve].
With `COc1cc(/C=C2/C(=O)NN(c3ccc(Cl)cc3)C2=O)cc(OC)c1O` the Potency was active: 35.5 µM.
With `CCOC(=O)c1ccc(NC(=O)CN(C)S(=O)(=O)c2ccc(Br)s2)cc1` the Potency was “inactive”.
For `Cn1cccc1Cc1nnc(SCC(=O)Nc2cccc(F)c2)n1CCc1ccccc1`, the Potency was active: 50.1 µM.
For `COc1ccc(S(=O)(=O)NNC(=O)c2sccc2-n2cccc2)cc1`, the Potency was inconclusive: 89.1 µM [inhibitor, single point].
For `CN(C)c1ccc(C(CNC(=O)c2ccccc2Br)c2c[nH]c3ccccc23)cc1` (stereo not drawn), the Potency was active: 14.1 µM.
`CCCc1nc2c(sc3nc4c(cc32)COC(C)(C)C4)c(=O)o1` was tested, and the Potency was inconclusive: 79.4 µM [inhibitor, single point].
In the case of `CCN1CCN(c2ccc(NC(=O)c3ccccc3F)cc2Cl)CC1`, the Potency is reported as inconclusive: 89.1 µM [inhibitor, single point].
With `O=C(c1cccc([N+](=O)[O-])c1)c1ccc2c(c1)OCCOCCOCCO2` the Potency was inconclusive: 89.1 µM [inhibitor, single point].
`Cc1ccc(Sc2ccc(N3CCC(C(=O)Nc4ccc(Cl)cc4)CC3)nn2)cc1` was tested, and the Potency was “inactive”.
`CCc1ccc(C(=O)c2cn(CC(=O)NCc3ccc(C)cc3)c3nc(C)ccc3c2=O)cc1` was tested, and the Potency was “inactive”.
`O=C(O)c1cccc(NC(=S)N/N=C/c2ccccc2OCc2ccc(Br)cc2)c1` was tested, and the Potency was active: 50.1 µM.
`N#C/C(=C/c1ccc(N2CCOCC2)o1)C(=O)NC1CCCCC1` was tested, and the Potency was inconclusive: 56.2 µM [inhibitor, partial curve].
In the case of `CCc1nnc(N/N=C/c2ccc(-c3ccc([N+](=O)[O-])cc3)o2)n1N`, the Potency is reported as inconclusive: 44.7 µM [inhibitor, partial curve].
For `N#CC(=C=[N-])C1=C(C#N)C(c2ccccc2F)C([n+]2ccccc2)C(O)(C2CC2)N1` (stereo not drawn), the Potency was inconclusive: 89.1 µM [inhibitor, single point].
`Cc1ccc(OCCOCCN(C)C)c(Cl)c1` was tested, and the Potency was active: 79.4 µM.
In the case of `COc1ccc(/C=C/c2onc(C)c2S(=O)(=O)N2CCC(C(=O)N3CCCCCC3)CC2)cc1`, the Potency is reported as inconclusive: 70.8 µM [inhibitor, single point].
With `COc1cc([C@@H]2Nc3c(F)cccc3[C@@H]3C=CC[C@@H]32)cc(Br)c1OC` the Potency was “inactive”.
For `Cc1c(C(=O)O)oc2c1-c1nn(Cc3ccccc3Cl)cc1CC2`, the Potency was inconclusive: 79.4 µM [inhibitor, single point].
With `COc1ccc(NC(C)C(=O)N/N=C/c2cc(Br)ccc2OC)cc1` (stereo not drawn) the Potency was inconclusive: 5.01 µM [inhibitor, full curve, poor fit].
`CN1CCN(S(=O)(=O)c2ccc(=O)[nH]c2)CC1` was tested, and the Potency was “inactive”.
In the case of `COc1ccc(CNC(=O)CCS(=O)(=O)Cc2ccc(C)cc2)c(OC)c1`, the Potency is reported as “inactive”.
For `COc1cc(C(=O)COC(=O)c2cc([N+](=O)[O-])ccc2N2CCOCC2)ccc1OC(F)F`, the Potency was “inactive”.
With `COc1ccc(CCNC(=O)C2c3ccccc3C(=O)N2Cc2ccccc2)cc1OC` (stereo not drawn) the Potency was “inactive”.
For `COc1ccc2c(c1)c(=O)oc1cc(OCC(=O)N3CCc4ccccc4C3)ccc12`, the Potency was active: 39.8 µM.
For `COC(=O)N/N=C/c1cn(CCCOc2ccccc2)c2ccccc12`, the Potency was inconclusive: 56.2 µM [inhibitor, single point].
With `Cc1c(CCCN)c2ccccc2n1Cc1ccccc1` the Potency was inconclusive: 50.1 µM [inhibitor, partial curve].
With `O=C(Cc1ccccc1)N/N=C/c1cc(Br)cc(Cl)c1O` the Potency was “inactive”.
For `O=C(CSCc1ccccc1Br)Nc1ccccc1`, the Potency was “inactive”.
`COc1ccc(-n2cc(-c3ccccc3)c3c(N4CC(C)OC(C)C4)ncnc32)cc1` (stereo not drawn) was tested, and the Potency was inconclusive: 11.2 µM [inhibitor, partial curve].
For `COc1ccc(-c2nnc(SCC(=O)NC3CC3)o2)c(OC)c1`, the Potency was “inactive”.
In the case of `CN(C)CCNC(=O)c1ccccc1`, the Potency is reported as inconclusive: 12.6 µM [inhibitor, single point].
`COc1ccccc1Nc1ccc(NC(=O)c2cccc([N+](=O)[O-])c2C)cc1` was tested, and the Potency was active: 10 µM.
`Cc1cnc(C(=O)Oc2c(C)ccc(C)c2C)cn1` was tested, and the Potency was “inactive”.
In the case of `COc1ccc(OC)c(NC(=O)NNC(=O)CCCOc2ccc(Cl)cc2C)c1`, the Potency is reported as inconclusive: 44.7 µM [inhibitor, partial curve].
For `CN(C)C1(CNC(=O)C2CCN(S(=O)(=O)c3cccc(C(F)(F)F)c3)CC2)CCCCC1`, the Potency was “inactive”.
With `Cc1ccccc1NS(=O)(=O)c1cccc2nonc12` the Potency was inconclusive: 79.4 µM [inhibitor, single point].
`CCOC(=O)C1=C(C)N=c2s/c(=C/c3ccc(OCC(=O)O)cc3)c(=O)n2C1c1ccc(OC)cc1OC` (stereo not drawn) was tested, and the Potency was active: 35.5 µM.
With `C/C=C\C=C\C(=O)N1CC2(CC(c3cccc(NC(=O)COc4ccc(Cl)cc4)c3)=NO2)C[C@H]1C(N)=O` (stereo partly drawn) the Potency was “inactive”.
`N#Cc1c(=O)c2nc(NCCCO)ncc2n2c(=O)c3ccccc3[nH]c12` was tested, and the Potency was active: 12.6 µM.
In the case of `CNc1ccccc(C(=O)/C=C/c2ccccc2OC)c1=O`, the Potency is reported as active: 50.1 µM.
With `COCCn1c(=N)c(C(=O)NC2CCCC2)cc2c(=O)n3cc(C)ccc3nc21` the Potency was “inactive”.
In the case of `CC(=O)c1c(C)[nH]c(C(=O)NCc2ccc(C)cc2)c1C`, the Potency is reported as inconclusive: 89.1 µM [inhibitor, single point].
`COC(=O)CCc1c(C)c(C(=O)c2cc(OC)c(OC)c(OC)c2)c2ccccn12` was tested, and the Potency was inconclusive: 79.4 µM [inhibitor, single point].
In the case of `CCOC(=O)C1CCCN(C(=O)c2cc(Nc3ccc(OC)cc3OC)nc3ccccc23)C1` (stereo not drawn), the Potency is reported as inconclusive: 39.8 µM [inhibitor, partial curve].
In the case of `O=C(O)C(Cc1ccccc1)N1C(=O)/C(=C/c2ccccc2)SC1=S` (stereo not drawn), the Potency is reported as inconclusive: 39.8 µM [inhibitor, partial curve].
`O=C(NCc1ccco1)c1cnn2c1NC(c1ccc(Br)cc1)CC2C(F)(F)F` (stereo not drawn) was tested, and the Potency was inconclusive: 79.4 µM [inhibitor, single point].
`O=C(NCCCn1ccnc1)/C(=C/c1ccc(Cl)cc1)NC(=O)c1ccccc1` was tested, and the Potency was active: 50.1 µM.
With `COc1ccc(NC(=S)NCC2CCN(c3ccc(OC)cc3)C2)cc1` (stereo not drawn) the Potency was active: 31.6 µM.
`COc1ccc(OC)c(CC2C(=O)Nc3ccc(Br)cc32)c1` (stereo not drawn) was tested, and the Potency was inconclusive: 50.1 µM [inhibitor, partial curve].
`FC(F)(F)c1cc(-c2ccco2)nc(-n2cnc3ccccc32)n1` was tested, and the Potency was “inactive”.
In the case of `CCNCC(=O)N1c2ccccc2CCc2ccc(NC(=O)OC(C)C)cc21`, the Potency is reported as inconclusive: 70.8 µM [inhibitor, single point].
In the case of `CCc1ccccc1Nc1nc(-c2cccnc2)cs1`, the Potency is reported as inconclusive: 89.1 µM [inhibitor, single point].
In the case of `N/C(=N\OC(=O)c1ccccc1)c1ccccn1`, the Potency is reported as “inactive”.
`COc1cccc(C2/C(=C(/O)c3cnn(-c4ccccc4)c3C)C(=O)C(=O)N2CCN(C)C)c1OC` (stereo not drawn) was tested, and the Potency was inconclusive: 89.1 µM [inhibitor, single point].
`CC1(C)C(=O)Nc2ccccc2N1C(=O)COc1ccc(S(=O)(=O)N2CCOCC2)cc1Cl` was tested, and the Potency was inconclusive: 79.4 µM [inhibitor, single point].
With `Cc1onc(-c2ccccc2)c1C(=O)N1CCN(C)CC1` the Potency was “inactive”.
In the case of `Nc1ccc2c(c1)C(=O)C(=O)c1ccccc1-2`, the Potency is reported as inconclusive: 3.98 µM [inhibitor, partial curve, poor fit].
`CC(C)CCNc1nc(N2CCCC2)c2c(c1C#N)CCN(C)C2` was tested, and the Potency was inconclusive: 56.2 µM [inhibitor, partial curve].
For `O=C(N/N=C/c1ccc(Br)s1)c1ccc([N+](=O)[O-])cc1`, the Potency was inconclusive: 89.1 µM [inhibitor, single point].
`CN(C)c1ccc(N=c2sc3ccccc3n2C)cc1` was tested, and the Potency was active: 7.94 µM.
With `CC(=O)c1ccc(NC(=O)C(C)OC(=O)C2CCN(c3ccc(C(F)(F)F)cn3)CC2)cc1` (stereo not drawn) the Potency was “inactive”.
With `COc1ccccc1N1CCN(/N=C/c2cc(Br)ccc2F)CC1` the Potency was inconclusive: 50.1 µM [inhibitor, partial curve].
For `O=S(=O)(Nc1nc2ccccc2nc1NCC1CCCO1)c1cc(Cl)ccc1Cl` (stereo not drawn), the Potency was “inactive”.
`COc1cc(C2C(C(=O)c3ccc(C)o3)=C(O)C(=O)N2c2cc(C)on2)ccc1O` (stereo not drawn) was tested, and the Potency was inconclusive: 79.4 µM [inhibitor, single point].
